Experimental data reported in PMC4336329 (PLoS ONE, 2015).
In all, about 310,000 compounds went through this assay and about 2,200 (0.71%) showed an effect of 50% or more. The effect is printed as a negative number. This is one part of the list.

Molecular target: human ether-à-go-go-related gene (hERG) potassium channel (human, UniProt Q12809)
Assay: primary screen, population patch clamp on CHO cells stably expressing hERG

Sequence of human ether-à-go-go-related gene (hERG) potassium channel (Q12809 whole entry, looked up): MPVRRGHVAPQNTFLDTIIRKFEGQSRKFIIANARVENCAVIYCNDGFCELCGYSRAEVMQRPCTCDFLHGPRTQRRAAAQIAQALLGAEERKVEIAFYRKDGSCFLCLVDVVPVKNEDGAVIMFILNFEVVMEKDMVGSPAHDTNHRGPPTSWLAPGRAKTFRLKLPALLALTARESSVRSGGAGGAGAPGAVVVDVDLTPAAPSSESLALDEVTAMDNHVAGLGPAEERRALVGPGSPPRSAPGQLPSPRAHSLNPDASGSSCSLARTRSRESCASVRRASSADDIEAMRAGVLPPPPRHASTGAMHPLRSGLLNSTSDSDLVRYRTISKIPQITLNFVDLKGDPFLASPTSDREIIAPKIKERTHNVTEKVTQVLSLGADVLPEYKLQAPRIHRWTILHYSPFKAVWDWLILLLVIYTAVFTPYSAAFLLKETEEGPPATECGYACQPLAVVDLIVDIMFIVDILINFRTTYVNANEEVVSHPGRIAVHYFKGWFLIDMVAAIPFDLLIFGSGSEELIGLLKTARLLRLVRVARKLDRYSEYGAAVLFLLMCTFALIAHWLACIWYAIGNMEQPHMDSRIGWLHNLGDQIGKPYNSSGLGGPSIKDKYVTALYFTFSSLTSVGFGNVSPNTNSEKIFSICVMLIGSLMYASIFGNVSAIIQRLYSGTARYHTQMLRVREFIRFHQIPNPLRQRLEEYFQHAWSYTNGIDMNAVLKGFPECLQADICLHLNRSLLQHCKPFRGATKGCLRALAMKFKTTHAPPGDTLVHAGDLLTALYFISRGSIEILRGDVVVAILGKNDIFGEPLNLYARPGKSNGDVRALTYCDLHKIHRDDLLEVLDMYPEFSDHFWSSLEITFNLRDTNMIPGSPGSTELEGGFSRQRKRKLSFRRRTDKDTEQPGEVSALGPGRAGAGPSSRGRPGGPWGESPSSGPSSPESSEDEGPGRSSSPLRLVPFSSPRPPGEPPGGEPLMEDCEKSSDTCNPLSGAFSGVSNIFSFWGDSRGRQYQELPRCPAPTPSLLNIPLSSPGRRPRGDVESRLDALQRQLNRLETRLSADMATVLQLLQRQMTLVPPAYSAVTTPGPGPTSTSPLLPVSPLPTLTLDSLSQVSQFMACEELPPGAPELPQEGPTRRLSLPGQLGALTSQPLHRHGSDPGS

**Q.** Which “hERG current change (%, negative = inhibition) at 1uM” value does the source give for `Cc1ccsc1/C=C1/SC(=O)N(CC(=O)N2CCOCC2)C1=O` here?
**A.** 5.75%

**Q.** With `CCSc1nc(O)c(C2OC(=O)c3c2ccc(OC)c3OC)c(=O)n1-c1ccccc1` (stereo not shown) as the molecule, how does the “hERG current change (%, negative = inhibition) at 1uM” value read?
**A.** 11.7%

**Q.** `CCOC(=O)Cn1cc(/C=C(\C#N)C(=O)N2CCOCC2)c2ccccc21` was tested. Which “hERG current change (%, negative = inhibition) at 1uM” value did it give?
**A.** 5.91%

**Q.** How did the “hERG current change (%, negative = inhibition) at 1uM” value turn out when `Cn1cc(CN2CCCC(C(=O)c3ccc(-c4ccccc4)cc3)C2)cn1` (stereo not shown) was run?
**A.** -1.82%

**Q.** How did the “hERG current change (%, negative = inhibition) at 1uM” value turn out when `Cc1cc(Br)ccc1S(=O)(=O)NCc1ccccc1` was run?
**A.** 7.15%

**Q.** With `Cc1cc(OC(C)C(=O)NCC2CCC(C(=O)O)CC2)c2c(C)c(Cc3ccccc3)c(=O)oc2c1` (stereo not shown) as the molecule, how does the “hERG current change (%, negative = inhibition) at 1uM” value read?
**A.** -13.1%

**Q.** How did the “hERG current change (%, negative = inhibition) at 1uM” value turn out when `O=c1cc(-c2ccccc2)nc(SCc2ccc(Cl)cc2)[nH]1` was run?
**A.** 12.8%

**Q.** With `CCOc1ccccc1Nc1nc(N)nc(CSc2nccc(C)n2)n1` as the molecule, how does the “hERG current change (%, negative = inhibition) at 1uM” value read?
**A.** 12.8%

**Q.** `CSc1nncc(/C(C)=N\Nc2ccccc2C)n1` was tested. Which “hERG current change (%, negative = inhibition) at 1uM” value did it give?
**A.** 4.15%

**Q.** How did the “hERG current change (%, negative = inhibition) at 1uM” value turn out when `CC(=O)N(C)c1ccc(NC(=O)CCN2C(=O)c3ccccc3C2=O)cc1` was run?
**A.** 17.1%

**Q.** How did the “hERG current change (%, negative = inhibition) at 1uM” value turn out when `Cc1ccc(S(=O)(=O)NNC(=O)Nc2cccc(F)c2)c(C)c1` was run?
**A.** 9.93%

**Q.** For `O=c1[nH]c2cc3c(cc2cc1C(c1nnnn1Cc1ccccc1)N1CCCCCC1)OCCO3` (stereo not shown), which “hERG current change (%, negative = inhibition) at 1uM” value is on record?
**A.** -13.7%

**Q.** Which “hERG current change (%, negative = inhibition) at 1uM” value does the source give for `O=C(NCCc1ccc2c(c1)OCCO2)c1cccc(S(=O)(=O)N2CCCC2)c1` here?
**A.** 8.06%

**Q.** Which “hERG current change (%, negative = inhibition) at 1uM” value does the source give for `O=C(CCC(=O)N1CCN(c2ccccn2)CC1)Nc1nnc(C2CCCCC2)s1` here?
**A.** 11.2%

**Q.** Which “hERG current change (%, negative = inhibition) at 1uM” value does the source give for `Cc1onc(C(N)=O)c1C(=O)Nc1ncc(C(F)(F)F)cc1Cl` here?
**A.** 14%

**Q.** For `CC(C)(C)c1cc(C(=O)NCCCn2ccnc2)cc(C(C)(C)C)c1.Cl`, which “hERG current change (%, negative = inhibition) at 1uM” value is on record?
**A.** 13.1%

**Q.** `CCCCCCCCOC(=O)c1nc(Cl)c(Cl)c(N)c1Cl` was tested. Which “hERG current change (%, negative = inhibition) at 1uM” value did it give?
**A.** -64.4%

**Q.** For `O=c1[nH]c(CN2CCN(S(=O)(=O)c3ccc(Cl)cc3)CC2)nc2cc(Cl)ccc12`, which “hERG current change (%, negative = inhibition) at 1uM” value is on record?
**A.** 9.83%

**Q.** Which “hERG current change (%, negative = inhibition) at 1uM” value does the source give for `CCn1c(COc2ccc(=O)n(-c3ccccc3)n2)n[nH]c1=S` here?
**A.** 18.8%

**Q.** With `COC(=O)C1=C(c2ccc(-c3ccccc3)c(F)c2)C[C@@H]2CC[C@H]1N2C(=O)NCCc1ccccc1` as the molecule, how does the “hERG current change (%, negative = inhibition) at 1uM” value read?
**A.** 15.4%

**Q.** How did the “hERG current change (%, negative = inhibition) at 1uM” value turn out when `O=S(=O)(c1ccc(NC(=S)N/N=C/c2ccc(O)c(O)c2)cc1)N1CCOCC1` was run?
**A.** 9.21%

**Q.** For `Cc1cccc(C(=O)N(NC(=O)Oc2ccccc2)C(C)(C)C)c1`, which “hERG current change (%, negative = inhibition) at 1uM” value is on record?
**A.** -0.163%

**Q.** `O=C(Nc1ccc(S(=O)(=O)NCc2ccco2)cc1)c1ccc2ccccc2n1` was tested. Which “hERG current change (%, negative = inhibition) at 1uM” value did it give?
**A.** 2.4%

**Q.** How did the “hERG current change (%, negative = inhibition) at 1uM” value turn out when `O=C(c1ccccc1)c1ccc(N2CCN(C(=O)c3cccc(F)c3F)CC2)c(F)c1` was run?
**A.** -4.18%

**Q.** `COc1ccccc1-c1nn2c(C3COc4ccccc4O3)nnc2s1` (stereo not shown) was tested. Which “hERG current change (%, negative = inhibition) at 1uM” value did it give?
**A.** -3.14%

**Q.** For `Cc1ccn2c(C(=O)NNC(=O)Nc3ccc(Cl)cc3)c(C)nc2c1`, which “hERG current change (%, negative = inhibition) at 1uM” value is on record?
**A.** 14.6%

**Q.** Which “hERG current change (%, negative = inhibition) at 1uM” value does the source give for `CC(OC(=O)c1cc(S(=O)(=O)N2CCOCC2)ccc1Br)C(=O)N1CCOCC1` (stereo not shown) here?
**A.** -0.764%

**Q.** For `C=CCN(CC=C)Cc1ccc(C(=O)OC)o1`, which “hERG current change (%, negative = inhibition) at 1uM” value is on record?
**A.** -3.84%

**Q.** How did the “hERG current change (%, negative = inhibition) at 1uM” value turn out when `COC(=O)C(Cc1ccccc1)NC(=O)CNS(=O)(=O)c1ccc(Br)cc1` (stereo not shown) was run?
**A.** 0.383%

**Q.** How did the “hERG current change (%, negative = inhibition) at 1uM” value turn out when `CCCc1nc2sc3c(c2c(=O)n1N)CCC3` was run?
**A.** 5.93%

**Q.** `COc1cccc(CN(C(=O)c2ccccc2)C2CCS(=O)(=O)C2)c1` (stereo not shown) was tested. Which “hERG current change (%, negative = inhibition) at 1uM” value did it give?
**A.** 14.2%

**Q.** Which “hERG current change (%, negative = inhibition) at 1uM” value does the source give for `COCCn1c(SCC(=O)Nc2ccc(C)cc2C)nc2c(oc3ccccc32)c1=O` here?
**A.** 9.1%

**Q.** Which “hERG current change (%, negative = inhibition) at 1uM” value does the source give for `Cc1ccc(CN2CCC(c3cc(-c4cccs4)n[nH]3)CC2)cc1` here?
**A.** -85.6%

**Q.** `Cc1cccc(NC(=O)c2ccc(NCCO)c([N+](=O)[O-])c2)n1` was tested. Which “hERG current change (%, negative = inhibition) at 1uM” value did it give?
**A.** -31.4%

**Q.** Which “hERG current change (%, negative = inhibition) at 1uM” value does the source give for `Cc1ccc(CNC(=O)C2CCCC2)cc1` here?
**A.** 10.4%

**Q.** Which “hERG current change (%, negative = inhibition) at 1uM” value does the source give for `Nc1c(C(=O)N2CCOCC2)sc2nc3c(cc12)CCCC3` here?
**A.** 16%

**Q.** For `Cc1ccc(F)cc1NC(=O)Nc1cc(C(C)(C)C)nn1C`, which “hERG current change (%, negative = inhibition) at 1uM” value is on record?
**A.** 9.22%

**Q.** Which “hERG current change (%, negative = inhibition) at 1uM” value does the source give for `CSC(=NC#N)N1CCN(c2ccc([N+](=O)[O-])cc2)CC1` here?
**A.** -80.9%

**Q.** For `CC(C)[C@H](NC(N)=O)C(=O)Nc1ccc(OCc2ccccc2)cc1`, which “hERG current change (%, negative = inhibition) at 1uM” value is on record?
**A.** 4.06%

**Q.** Which “hERG current change (%, negative = inhibition) at 1uM” value does the source give for `CCC(Oc1ccccc1)C(=O)Nc1ccccc1C(=O)N1CCOCC1` (stereo not shown) here?
**A.** 15.8%

**Q.** With `CC(C)(C)NC(=O)Nc1ccc(Cn2cc(C(F)(F)F)ccc2=O)cc1` as the molecule, how does the “hERG current change (%, negative = inhibition) at 1uM” value read?
**A.** 4.85%

**Q.** How did the “hERG current change (%, negative = inhibition) at 1uM” value turn out when `Cc1ccc(-c2cc(C(=O)NCC3CCCO3)c3ccccc3n2)cc1C` (stereo not shown) was run?
**A.** 5.51%

**Q.** With `O=C(NNc1ccc(-c2csnn2)cc1)c1cc(Cl)cc(Cl)c1` as the molecule, how does the “hERG current change (%, negative = inhibition) at 1uM” value read?
**A.** 6.05%

**Q.** Which “hERG current change (%, negative = inhibition) at 1uM” value does the source give for `O=C(O)c1ccc(O)cc1O` here?
**A.** 6.46%

**Q.** How did the “hERG current change (%, negative = inhibition) at 1uM” value turn out when `O=C(Nc1nc2ccc(S(=O)(=O)N3CCCCC3)cc2s1)c1ccncc1` was run?
**A.** -24%

**Q.** `CCC(Sc1nnc(C)c(=O)[nH]1)C(=O)Nc1cccc2ccccc12` (stereo not shown) was tested. Which “hERG current change (%, negative = inhibition) at 1uM” value did it give?
**A.** 14.3%

**Q.** How did the “hERG current change (%, negative = inhibition) at 1uM” value turn out when `CCOc1ccc(Nc2cc(=O)n(C)c(=O)n2C)cc1` was run?
**A.** 10.2%

**Q.** With `Cc1cccc(N=C2Sc3nc4c(C)c(C)ccc4cc3CN2CCN2CCOCC2)c1` as the molecule, how does the “hERG current change (%, negative = inhibition) at 1uM” value read?
**A.** 17.5%

**Q.** `Cc1coc2cc3oc(=O)c(CCC(=O)NCCN4CCOCC4)c(C)c3cc12` was tested. Which “hERG current change (%, negative = inhibition) at 1uM” value did it give?
**A.** 3.81%

**Q.** `CC1=C(CC(=O)c2ccccc2)C(=O)c2ccccc2C1=O` was tested. Which “hERG current change (%, negative = inhibition) at 1uM” value did it give?
**A.** 4.26%

**Q.** For `CC(C)(C)[C@H]1C=C(C(=O)NC2CC2)O[C@@H](OCCCCO)C1`, which “hERG current change (%, negative = inhibition) at 1uM” value is on record?
**A.** 21%

**Q.** `Cn1cc(CNCCN2CCCCC2=O)c(-c2cccc(Cl)c2)n1` was tested. Which “hERG current change (%, negative = inhibition) at 1uM” value did it give?
**A.** 8.56%

**Q.** Which “hERG current change (%, negative = inhibition) at 1uM” value does the source give for `NC(=O)CC(NC(=O)c1ccc(Br)cc1)c1ccc(NC2CCCCC2)c([N+](=O)[O-])c1` (stereo not shown) here?
**A.** 12.4%

**Q.** Which “hERG current change (%, negative = inhibition) at 1uM” value does the source give for `Cc1cc(NC(=O)CCC(=O)N(C(C(=O)NC(C)(C)C)c2ccccc2Cl)C(C)(C)C)no1` (stereo not shown) here?
**A.** 19.5%

**Q.** For `COc1ccc(CC(=O)NCc2n[nH]c(=S)n2-c2ccc(Br)cc2)cc1`, which “hERG current change (%, negative = inhibition) at 1uM” value is on record?
**A.** 13.6%
